{"source": "PubChem BioAssay AID1963576", "about": "(National Center for Advancing Translational Sciences (NCATS), 2024)", "note": "Among all 46,000 compounds or so, about 60 (0.1%) were called active. Inconclusive results (about 3%) are left out. The call rests on the fitted dose curve; in most records, active means well fitted inhibition curve with a large enough effect; inconclusive means small, poorly fitted or top-dose-only effect; inactive means no such curve, though single readings can be large or run the other way. The list shows a part of the results."}
{"assay": "Primary qHTS assay for Inhibitors of ovarian cancer metastasis using an organotypic tumor microenvironment (TME) model; further: nearly all actives have a fitted effect of over 65% in size;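 on activity change, negative = inhibition: plate controls were DMSO wells for no effect and tomatine positive control wells for full effect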.", "details": "SKOV3ip1-GFP adhesion/invasion on 3D omental model, fluorescence; series mostly up to 45.8 µM; activity change, negative = inhibition: at the top concentration", "outline": "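A 3D layer of primary human omental fibroblasts, mesothelial cells, fibronectin and collagen I, grown 48 hr, received SKOV3ip1-GFP cells in serum-free medium plus compounds at 0.36-46 umol/L. After 2 hr RT and 16 hr 37 C, fixed adherent GFP cells were counted; normalized to DMSO and tomatine.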"}
{"smiles": "Cc1cc2c(=O)c(C(=O)c3ccncc3)cn(CC(=O)Nc3cccc(C)c3C)c2cc1C", "activity change, negative = inhibition": "inactive: -2.73%"}
{"smiles": "Cc1oc(-c2ccc(C(=O)NCc3ccc(N(C)C)cc3)cc2)nc1COc1ccccc1", "activity change, negative = inhibition": "inactive: -16.3%"}
{"smiles": "CC(NC(=O)CN(C)S(=O)(=O)c1ccc2c(c1)c(=O)n(C)c(=O)n2C)c1ccccc1", "note": "(centres undefined)", "outcome": "inactive"}
{"smiles": "COc1ccc(NC(c2ccc(F)cc2)c2nnc(-c3ccccc3Cl)o2)cc1Cl", "note": "(centres undefined)", "activity change, negative = inhibition": "inactive: -9.81%"}
{"smiles": "Cc1cccc(NC(=O)Cn2c(=O)oc3cc(S(=O)(=O)NCc4ccccc4)ccc32)c1", "activity change, negative = inhibition": "inactive: 3.33%"}
{"smiles": "COc1ccc(Br)cc1C1CC(=O)Nc2c1c(C)nn2-c1nc(C)cc(C)n1", "note": "(centres undefined)", "activity change, negative = inhibition": "inactive: 2.66%"}
{"smiles": "Cc1ccc2nc(N(Cc3cccnc3)C(=O)C3CCCCC3)sc2c1", "outcome": "inactive"}
{"smiles": "CCOC(=O)c1c(S(=O)(=O)N2CCCC(C(=O)N3CCN(c4ccc(F)cc4)CC3)C2)c(C)n(C)c1C", "note": "(centres undefined)", "activity change, negative = inhibition": "inactive: 1.41%"}
{"smiles": "COc1ccc(CCNC(=O)Cn2nc(C)n3c(cc4occc43)c2=O)cc1OC", "activity change, negative = inhibition": "inactive: -5.74%"}
{"smiles": "COc1ccc(CCNC(=O)Cn2ncc3c(C)n(Cc4ccccc4F)c(C)c3c2=O)cc1OC", "activity change, negative = inhibition": "inactive: 5.95%"}
{"smiles": "Cc1c(C(N)=O)nnn1-c1ccc(Br)cc1", "activity change, negative = inhibition": "inactive: 1.77%"}
{"smiles": "CCN(CC)CCNC(=O)C1CCCN(c2ncnc3onc(C)c23)C1", "note": "(centres undefined)", "activity change, negative = inhibition": "inactive: 1.79%"}
{"smiles": "Cc1ccc(C)c(-c2csc(-c3c(N)c(C(=O)c4ccc5c(c4)OCO5)n4ccccc34)n2)c1", "activity change, negative = inhibition": "inactive: -5.66%"}
{"smiles": "CCc1cccc(NC(=O)CN2C(=O)CCc3cc(S(=O)(=O)N4CCOCC4)ccc32)c1", "outcome": "inactive"}
{"smiles": "Cc1c(Cl)cccc1-n1c(CCC(=O)O)ccc1-c1cccs1", "activity change, negative = inhibition": "inactive: 8.44%"}
{"smiles": "CCC(C(=O)N1CCN(c2cc(Cl)ccc2C)CC1)n1nc(C)n2c(cc3occc32)c1=O", "note": "(centres undefined)", "activity change, negative = inhibition": "inactive: 4.1%"}
{"smiles": "CCSc1nc2n(n1)C(c1ccc(CC)cc1)C(C(=O)Nc1ccccc1OC)=C(C)N2", "note": "(centres undefined)", "activity change, negative = inhibition": "inactive: 0.821%"}
{"smiles": "COc1ccc(Br)cc1CNC(=O)C(C)n1nc(C)n2c(cc3occc32)c1=O", "note": "(centres undefined)", "activity change, negative = inhibition": "inactive: 3.42%"}
{"smiles": "COc1cc(CNCc2c(C(=O)O)c(C)n(Cc3cccc(Cl)c3)c2C)cc(OC)c1OC", "activity change, negative = inhibition": "inactive: -9.27%"}
{"smiles": "CCc1ccc2nc(N3CCC(C(=O)O)CC3)sc2c1", "outcome": "inactive"}
{"smiles": "COc1ccc(N2CCN(C(=O)c3cc4c(=O)n(Cc5ccccc5)ccc4nc3C)CC2)cc1", "activity change, negative = inhibition": "inactive: 0.82%"}
{"smiles": "Cc1ccc(CN2CCSc3ccc(C(=O)Nc4ccc(F)cc4F)cc32)cc1", "activity change, negative = inhibition": "inactive: -5.63%"}
{"smiles": "CCN(CC)c1cc(C)nc2nc(-c3ccc(C)cc3)nn12", "outcome": "inactive"}
{"smiles": "Cc1ccc2oc(C(=O)Nc3nnc(CC(C)C)s3)cc(=O)c2c1", "activity change, negative = inhibition": "inactive: 8.88%"}
{"smiles": "COc1ccc(CCNC(=O)C(=O)Nc2ccc(C)c(C)c2)cc1", "activity change, negative = inhibition": "inactive: 1.73%"}
{"smiles": "CC12CC3CC(C)(C1)CC(N)(C3)C2", "activity change, negative = inhibition": "inactive: 0.954%"}
{"smiles": "CCc1ccc(CNC(=O)c2cnc(N3CCCCC3)c3ccccc23)cc1", "activity change, negative = inhibition": "inactive: -6.63%"}
{"smiles": "COc1ccc(S(=O)(=O)Nc2cccc(-c3ccc(N4CCCCCC4)nn3)c2)cc1F", "activity change, negative = inhibition": "inactive: 3.79%"}
{"smiles": "O=C(CSc1nc2c(c(=O)[nH]1)CCCC2)Nc1ccccc1C(F)(F)F", "activity change, negative = inhibition": "inactive: -4.51%"}
{"smiles": "CC(C)c1ccc(S(=O)(=O)c2cn(CC(=O)Nc3ccc(F)cc3)c3ccccc3c2=O)cc1", "activity change, negative = inhibition": "inactive: -10.1%"}
{"smiles": "O=C(CN1C(=O)CC(c2ccco2)Sc2ccccc21)Nc1cccc(C(F)(F)F)c1", "note": "(centres undefined)", "outcome": "inactive"}
{"smiles": "CN1C(C(=O)Nc2ccccn2)=C(O)c2sc(Cl)cc2S1(=O)=O", "activity change, negative = inhibition": "inactive: -1.79%"}
{"smiles": "Cc1ccc(-c2nc(C)c(CCNC(=O)C(=O)Nc3cc(C)ccc3C)s2)cc1", "outcome": "inactive"}
{"smiles": "CCOc1ccc(NC(=O)Cn2c(=O)cc(C)c3c(C)nn(C)c32)cc1", "activity change, negative = inhibition": "inactive: -4.56%"}
{"smiles": "COCCCNC(=O)CCCN1C(=O)CCn2nc(-c3cccn3C)cc21", "activity change, negative = inhibition": "inactive: 1.97%"}
{"smiles": "Cc1ccccc1CN1c2ccccc2-c2nc(SCC(=O)c3ccc(Cl)cc3)ncc2S1(=O)=O", "outcome": "inactive"}
{"smiles": "Cc1csc2nc(-c3cccc(NS(C)(=O)=O)c3)cn12", "outcome": "inactive"}
{"smiles": "CCc1ccccc1NC(=O)Cn1c(=O)n(Cc2ccccc2)c(=O)c2c(C)c(C(=O)N(C)C)sc21", "activity change, negative = inhibition": "inactive: 3.95%"}
{"smiles": "Cc1ccccc1-c1noc(-c2ccc(N3CCC(C)CC3)c([N+](=O)[O-])c2)n1", "activity change, negative = inhibition": "inactive: 1.16%"}
{"smiles": "CSc1ncc(Cl)c(C(=O)Nc2c(C(=O)Nc3cccc(C)c3)oc3ccccc23)n1", "activity change, negative = inhibition": "inactive: -15.6%"}
{"smiles": "Cc1ccc(S(=O)(=O)c2c(Nc3ccc(C)c(C)c3)sc(C(=O)c3ccc4c(c3)OCO4)c2N)cc1", "activity change, negative = inhibition": "inactive: -1.43%"}
{"smiles": "Cc1ccc(-c2n[nH]c3c2C(c2ccccc2Cl)N(c2ccc(C(=O)O)cc2)C3=O)cc1", "note": "(centres undefined)", "outcome": "inactive"}
{"smiles": "CCCOc1ccc(C2=NC(c3ccncc3)=Nc3ccc(C)cc3N2)cc1", "activity change, negative = inhibition": "inactive: -9.97%"}
{"smiles": "Cc1oc2ccc(NS(=O)(=O)c3ccc(F)cc3)cc2c1C(=O)O", "outcome": "inactive"}
{"smiles": "Cc1c(CN(C)C(=O)c2cc(-c3ccccc3)nc3ccc(Br)cc23)cnn1C", "outcome": "inactive"}
{"smiles": "COc1cc(CNCCSc2nnnn2C)ccc1OCc1ccccc1C", "outcome": "inactive"}
{"smiles": "Cc1ccccc1CNC(=O)c1ccc(NC(=O)N2CCCCc3ccccc32)cc1", "activity change, negative = inhibition": "inactive: -3.35%"}
{"smiles": "O=C(Nc1c(C(=O)c2ccccc2)oc2ccccc12)c1ccc(F)cc1", "activity change, negative = inhibition": "inactive: 6.28%"}
{"smiles": "COc1ccc(CCN(C)CCCOc2ccc(S(=O)(=O)c3[nH]c4ccccc4c3C(C)C)cc2)cc1OC", "activity change, negative = inhibition": "inactive: 6.65%"}
